Read-outs that look alike come from different tables or passages of the source.
Legend:
[1] = tested on: patients with higher risk MDS; assay: AZA-001 pooled subgroup analysis by Western EU country; type: in vivo, human
[2] = tested on: patients with higher risk MDS; conditions: for HR (95% CI) for overall survival, AZA vs BSC / HR (95% CI) for overall survival, AZA vs IC / HR (95% CI) for overall survival, AZA vs LDara-C: adjusted stratified Cox model
[3] = IPSS cytogenetic subgroup Intermediate
[4] = ITT, N=179, listed as Azacitidine
[5] = pre-selection BSC only, AZA N=117
[6] = pre-selection IC, AZA N=17 / IC N=25
[7] = pre-selection LDara-C, AZA N=45 / LDara-C N=49

## Nc1ncn([C@@H]2O[C@H](CO)[C@@H](O)[C@H]2O)c(=O)n1 [azacitidine, 4-amino-1-β-D-ribofuranosyl-1,3,5-triazin-2(1H)-one]
[1]; France + UK
  HR (95% CI) OS, AZA vs CCR: 0.44 (0.23-0.85)
  difference in median OS, AZA vs CCR: 8.0 months
[1]; France + UK (LDAC driven)
  OS (median months): 24.5 months
[1]; Germany + Italy + Spain
  difference in median OS, AZA vs CCR: 8.6 months
[1]; Germany + Italy + Spain (BSC driven)
  OS (median months): 25.1 months
[2]; 50 of 111 patients
  baseline RBC transfusion-dependent patients who became transfusion independent: 45%
[2]; IPSS cytogenetic subgroup Good
  hazard ratio for overall survival, azacitidine vs CCR: 0.62
  overall survival difference favoring azacitidine vs CCR: median not reached
[2]; [3]
  hazard ratio for overall survival, azacitidine vs CCR: 0.43
  overall survival difference favoring azacitidine vs CCR: 9.3 months
[2]; IPSS cytogenetic subgroup Poor
  hazard ratio for overall survival, azacitidine vs CCR: 0.52
  overall survival difference favoring azacitidine vs CCR: 11.2 months
[2]; ITT
  Any hematologic improvement (Major + Minor) rate: 49.2%
  HI-E Major (erythroid improvement) rate: 39.5%
  HI-N Major (neutrophil improvement) rate: 25/131 (19.1) %
  HI-P Major (platelet improvement) rate: 32.6%
  difference in median overall survival, azacitidine vs CCR: 9.4 months
  hazard ratio for overall survival, azacitidine vs CCR (Cox model): 0.58
  hazard ratio, time to AML transformation, azacitidine vs CCR: 0.50
  median duration of hematologic improvement: 13.6 months
  median time to AML transformation: 17.8 months
  median time to disease progression, relapse after complete or partial remission, or death: 14.1 months
  overall survival advantage vs CCR: 74%
  patients alive at two years: 50.8%
  reduction in risk of death vs CCR: 42%
[2]; ITT population, FIG. 6
  difference in time to transformation to AML, azacitidine vs CCR: 13.7 months
[2]; ITT, N=179
  Complete Remission rate: 17%
  Deaths during first 3 cycles of treatment: 8%
  Deaths, overall: 82 (46) %
  Overall (CR + PR) rate, IWG 2000: 28.5%
  Partial Remission rate: 21/179 (11.7) %
  Stable Disease rate: 75/179 (41.9) %
[2]; ITT, N=179, listed as AZA
  Deaths during first 3 cycles of treatment: 14 (8) %
[2]; [4]
  Complete Remission rate: 30/179 (16.8) %
  Overall (CR + PR) rate, IWG 2000: 51 (28.5) %
[2]; ITT, azacitidine 75 mg/m2/day SC 7 d every 28 d, n=179
  median Kaplan-Meier overall survival: 24.4 months
[2]; ITT, listed as Azacitidine
  Any hematologic improvement (Major + Minor) rate: 87/177 (49.2) %
  HI-E Major (erythroid improvement) rate: 62/157 (39.5) %
  HI-P Major (platelet improvement) rate: 46/141 (32.6) %
[2]; assessed during treatment
  median time to AML transformation: 26.1 months
[2]; assessed over the entire trial
  median time to transformation to AML or death: 13.0 months
[2]; azacitidine vs CCR
  HR, dependence of overall survival prolongation on achievement of complete remission: 0.39
[2]; by treatment group
  deaths reported during treatment and follow-up: 45%
[2]; entire trial
  hazard ratio, time to transformation to AML or death, azacitidine vs CCR: 0.68
[2]; human, in vivo
  discontinuation / early withdrawal due to blood cytopenias: 4.6%
  discontinuations prior to study closure due to adverse events: 12.6%
[2]; human, in vivo, iv
  hazard ratio, infections requiring intravenous antimicrobials, azacitidine vs intensive chemotherapy: 0.28
  rate of infections requiring intravenous antimicrobials: 0.64 per patient year
[2]; in vivo
  tolerability: well tolerated
[2]; in vivo, iv
  hazard ratio, infections requiring intravenous antimicrobials, azacitidine vs BSC: 1.1
  hazard ratio, infections requiring intravenous antimicrobials, azacitidine vs CCR: 0.66
  hazard ratio, infections requiring intravenous antimicrobials, azacitidine vs LDara-C: 0.44
[2]; pre-selection BSC only
  HI-E Major rate: (39.0) %
  HI-N Major rate: (15.3) %
  HI-P Major rate: (30.3) %
  IWG Any hematologic improvement rate: (49.6) %
  difference in median overall survival, AZA vs BSC: 9.6 months
  HR (95% CI) for overall survival, AZA vs BSC: 0.58
[2]; [5]
  Complete Remission (CR) rate: (12.0) %
  Kaplan-Meier median overall survival: 21.1 months
  Overall (CR + PR) rate: (27.4) %
  Partial Remission (PR) rate: (15.4) %
  Stable Disease (SD) rate: (44.4) %
[2]; pre-selection BSC only, ITT
  Deaths during first 3 cycles of treatment: (12) %
[2]; pre-selection BSC only, ITT, AZA N=117
  Deaths, overall: (45) %
[2]; pre-selection BSC only, listed as AZA
  HR (95% CI) for overall survival, AZA vs BSC: 0.58 (0.40 to 0.85), 0.005
[2]; pre-selection IC
  HI-E Major rate: (28.6) %
  HI-N Major rate: (23.1) %
  HI-P Major rate: (33.3) %
  IWG Any hematologic improvement rate: (35.3) %
  difference in median overall survival, AZA vs IC: 9.4 months
  HR (95% CI) for overall survival, AZA vs IC: 0.76
[2]; [6]
  Complete Remission (CR) rate: (29.4) %
  Kaplan-Meier median overall survival: 25.1 months
  Overall (CR + PR) rate: (29.4) %
  Partial Remission (PR) rate: (0.0) %
  Stable Disease (SD) rate: (47.1) %
[2]; pre-selection IC, listed as AZA
  HR (95% CI) for overall survival, AZA vs IC: 0.76 (95% CI: 0.33 to 1.74)
[2]; pre-selection Intensive Chemo, ITT
  Deaths during first 3 cycles of treatment: (0) %
[2]; pre-selection Intensive Chemo, ITT, AZA N=17 / IC N=25
  Deaths, overall: (53) %
[2]; pre-selection LDara-C
  HI-E Major rate: (44.2) %
  HI-N Major rate: (27.3) %
  HI-P Major rate: (37.8) %
  IWG Any hematologic improvement rate: (53.3) %
  difference in median overall survival, AZA vs LDara-C: 9.2 months
  HR (95% CI) for overall survival, AZA vs LDara-C: 0.36
[2]; [7]
  Complete Remission (CR) rate: (24.4) %
  Kaplan-Meier median overall survival: 24.5 months
  Overall (CR + PR) rate: (31.1) %
  Partial Remission (PR) rate: (6.7) %
  Stable Disease (SD) rate: (33.3) %
[2]; pre-selection LDara-C, ITT
  Deaths during first 3 cycles of treatment: (0) %
[2]; pre-selection LDara-C, ITT, AZA N=45 / LDara-C N=49
  Deaths, overall: (44) %
[2]; pre-selection LDara-C, listed as AZA
  HR (95% CI) for overall survival, AZA vs LDara-C: 0.36 (0.20 to 0.65), 0.0006
